The results in this text go back to patent US20140377805A1.

This experiment has as its target equal amounts of hIL-1α and hIL-1β. The experiment can be described thus: cell-based or functional assay.

B1: hIL-1a/bDVD1-Ig (bispecific antibody, human IgG1, kappa)
heavy: QVQLQQSGAELVRPGSSVKISCKASGYAFSSYWMNWVKQRPGQGLEWIGQIYPGDGDTNYNGKFKGKATLTADKSSSTSYMQLSGLTSEDSAMYFCVRFPTGNDYYAMDYWGQGTSVTVSSQIQLVQSGPELKKPGETVKISCKASGYTFRNYGMNWVKQAPGKDLKRMAWINTYTGESTYADDFKGRFAFSLETSASTAYLQINNLKNEDTATYFCARGIYYYGSSYAMDYWGQGTSVTVSS[letters of human IgG1 constant region left out]
light: NIVLTQSPASLAVSLGQRATISCRASESVDSYGNSYMHWYQQKPGQPPKLLIYLASNLESGVPARFSGSGSRTDFTLTIDPVEADDAATYYCQQNNEDPFTFGSGTKLEIKRNIQMTQTTSSLSASLGDRVTISCRASQDISNCLNWYQQKPDGTVKLLIYYTSRLHSGVPSRFSGSGSGTDYSLTISNLEQEDIATYFCQQGKTLPYAFGGGTKLEINRTVAAPSVFIFPPSDEQLKSGTASVVCLLNNFYPREAKVQWKVDNALQSGNSQESVTEQDSKDSTYSLSSTLTLSKADYEKHKVYACEVTHQGLSSPVTKSFNRGEC
In turn, B1 came in with a dual-inhibition activity, IL-8 synthesis by MRC-5 cells with both cytokines present of 2.2 nM.
